Reference: the supplement of paper PMC8728848
The other results are listed elsewhere or left out.

Key:
Assay in all cases: glycan array binding signal (z-score within array); higher = stronger binding
Conditions in all cases: glycan notation: IUPAC condensed, linker removed
Gal6S(b1-4)Glc6S = biological target: Gal6S(b1-4)Glc6S
Procedure, shortened: (§1)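 Arrays were curated from the Consortium for Functional Glycomics database, 3228 in total, and kept only where the protein sequence was available. Binding is expressed as a within-array Z-score. This score was averaged across arrays of the same protein sequence at different concentrations or buffers and across linkers, and negative values can be read as non-binding.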

Gal6S(b1-4)GlcNAc = biological target: Gal6S(b1-4)GlcNAc
Procedure, shortened: as §1

Gal6S(b1-4)GlcNAc6S = biological target: Gal6S(b1-4)GlcNAc6S
Procedure, shortened: as §1

GalNAc(a1-3)Gal = biological target: GalNAc(a1-3)Gal
Procedure, shortened: as §1

GalNAc(a1-3)GalNAc = biological target: GalNAc(a1-3)GalNAc
Procedure, shortened: as §1

[1] = biological target: GalNAc(a1-3)GalNAc(b1-3)Gal(a1-4)Gal(b1-4)Glc
Procedure, shortened: as §1

[2] = biological target: GalNAc(a1-3)GalNAc(b1-3)Gal(a1-4)Gal(b1-4)GlcNAc
Procedure, shortened: as §1

GalNAc(b1-3)Gal = biological target: GalNAc(b1-3)Gal
Procedure, shortened: as §1

[3] = biological target: GalNAc(b1-3)Gal(a1-4)Gal(b1-4)GlcNAc
Procedure, shortened: as §1

[4] = biological target: GalNAc(b1-3)Gal(a1-4)Gal(b1-4)GlcNAc(b1-3)Gal(b1-4)Glc
Procedure, shortened: as §1

[5] = biological target: GalNAc(b1-3)Gal(a1-6)Gal(b1-4)Glc
Procedure, shortened: as §1

GalNAc(b1-3)GalNAc = biological target: GalNAc(b1-3)GalNAc
Procedure, shortened: as §1

GalNAc(b1-3)GlcNAc = biological target: GalNAc(b1-3)GlcNAc
Procedure, shortened: as §1

GalNAc(b1-4)Gal(b1-4)Glc = biological target: GalNAc(b1-4)Gal(b1-4)Glc
Procedure, shortened: as §1

GalNAc(b1-4)GlcNAc = biological target: GalNAc(b1-4)GlcNAc
Procedure, shortened: as §1

[6] = biological target: GalNAc(b1-4)GlcNAc(b1-2)Man
Procedure, shortened: as §1

[7] = biological target: GalNAc(b1-4)GlcNAc(b1-2)Man(a1-3)[GalNAc(b1-4)GlcNAc(b1-2)Man(a1-6)]Man(b1-4)GlcNAc(b1-4)GlcNAc
Procedure, shortened: as §1

[8] = biological target: GalNAc(b1-4)GlcNAc(b1-3)GalNAc(b1-4)GlcNAc
Procedure, shortened: as §1

GalNAc(b1-4)GlcNAc6S = biological target: GalNAc(b1-4)GlcNAc6S
Procedure, shortened: as §1

GalNAc(b1-6)GalNAc = biological target: GalNAc(b1-6)GalNAc
Procedure, shortened: as §1

GalNAc3S(b1-4)GlcNAc = biological target: GalNAc3S(b1-4)GlcNAc
Procedure, shortened: as §1

GalNAc3S(b1-4)GlcNAc3S = biological target: GalNAc3S(b1-4)GlcNAc3S
Procedure, shortened: as §1

[9] = biological target: GalNAc3S(b1-4)[Fuc(a1-3)]GlcNAc
Procedure, shortened: as §1

GalNAc4S6S(b1-4)GlcNAc = biological target: GalNAc4S6S(b1-4)GlcNAc
Procedure, shortened: as §1

GalNAc6S(b1-4)GlcNAc = biological target: GalNAc6S(b1-4)GlcNAc
Procedure, shortened: as §1

Glc(a1-4)Glc = biological target: Glc(a1-4)Glc
Procedure, shortened: as §1

[10] = biological target: Glc(a1-4)Glc(a1-4)Glc(a1-4)Glc
Procedure, shortened: as §1

Glc(a1-6)Glc(a1-6)Glc = biological target: Glc(a1-6)Glc(a1-6)Glc
Procedure, shortened: as §1

[11] = biological target: Glc(a1-6)Glc(a1-6)Glc(a1-6)Glc
Procedure, shortened: as §1

Glc(b1-4)Glc = biological target: Glc(b1-4)Glc
Procedure, shortened: as §1

Glc(b1-6)Glc = biological target: Glc(b1-6)Glc
Procedure, shortened: as §1

GlcA(b1-3)Gal = biological target: GlcA(b1-3)Gal
Procedure, shortened: as §1

GlcA(b1-3)GlcNAc = biological target: GlcA(b1-3)GlcNAc
Procedure, shortened: as §1

GlcA(b1-6)Gal = biological target: GlcA(b1-6)Gal
Procedure, shortened: as §1

[12] = biological target: GlcA3S(b1-3)Gal(b1-4)GlcNAc(b1-2)Man
Procedure, shortened: as §1

[13] = biological target: GlcA3S(b1-3)Gal(b1-4)GlcNAc(b1-3)Gal(b1-4)Glc
Procedure, shortened: as §1

[14] = biological target: GlcNAc(a1-3)Gal(b1-4)GlcNAc
Procedure, shortened: as §1

B1: Clec49 (Caenorhabditis elegans) (protein)
chain: MTRLTLLLFGLLGAATAQTCNTGGIYNEQFNRCYQYFTAPAQFSFAEQQCNLLGGHLASVQNGQENALLQSNAANSFKRSNYSDYWIGATDLETSGTWKWTDPSVTFDYSNWQLGEPQSGSDCAIQDKGDGTWSAIGCTSYRPYVCVTPVIMTATCPPITTPIPTTCPTPAPCPIKQCVPSCDQGWTYFSPTDFCYRVYHGEKFNDAEASCVLLGGHLASIHSLTENTFVNNIASCGIKEGKYEHLAWIGMRKVGQDWVWTDGTPSDYFNWAPKQPDNPKKELCVQTAPDLSHDKWYENWNNLECNEVMRAYICKKASIHN
- glycan array binding signal (z-score) (Gal6S(b1-4)Glc6S): -0.366
- glycan array binding signal (z-score) (Gal6S(b1-4)GlcNAc): -0.068
- glycan array binding signal (z-score) (Gal6S(b1-4)GlcNAc6S): 0.322
- glycan array binding signal (z-score) (GalNAc(a1-3)Gal): -0.207
- glycan array binding signal (z-score) (GalNAc(a1-3)GalNAc): -0.595
- glycan array binding signal (z-score) [1]: 0.137
- glycan array binding signal (z-score) [2]: 0.019
- glycan array binding signal (z-score) (GalNAc(b1-3)Gal): -0.427
- glycan array binding signal (z-score) [3]: 0.122
- glycan array binding signal (z-score) [4]: -0.551
- glycan array binding signal (z-score) [5]: -0.871
- glycan array binding signal (z-score) (GalNAc(b1-3)GalNAc): 0.425
- glycan array binding signal (z-score) (GalNAc(b1-3)GlcNAc): -0.016
- glycan array binding signal (z-score) (GalNAc(b1-4)Gal(b1-4)Glc): -0.239
- glycan array binding signal (z-score) (GalNAc(b1-4)GlcNAc): -0.349
- glycan array binding signal (z-score) [6]: 0.428
- glycan array binding signal (z-score) [7]: -0.185
- glycan array binding signal (z-score) [8]: -0.004
- glycan array binding signal (z-score) (GalNAc(b1-4)GlcNAc6S): -0.36
- glycan array binding signal (z-score) (GalNAc(b1-6)GalNAc): -0.155
- glycan array binding signal (z-score) (GalNAc3S(b1-4)GlcNAc): -0.354
- glycan array binding signal (z-score) (GalNAc3S(b1-4)GlcNAc3S): -0.314
- glycan array binding signal (z-score) [9]: 0.161
- glycan array binding signal (z-score) (GalNAc4S6S(b1-4)GlcNAc): 0.432
- glycan array binding signal (z-score) (GalNAc6S(b1-4)GlcNAc): -0.688
- glycan array binding signal (z-score) (Glc(a1-4)Glc): -0.802
- glycan array binding signal (z-score) [10]: -0.218
- glycan array binding signal (z-score) (Glc(a1-6)Glc(a1-6)Glc): -0.347
- glycan array binding signal (z-score) [11]: -0.524
- glycan array binding signal (z-score) (Glc(b1-4)Glc): 0.089
- glycan array binding signal (z-score) (Glc(b1-6)Glc): -0.529
- glycan array binding signal (z-score) (GlcA(b1-3)Gal): 0.347
- glycan array binding signal (z-score) (GlcA(b1-3)GlcNAc): -0.759
- glycan array binding signal (z-score) (GlcA(b1-6)Gal): -0.321
- glycan array binding signal (z-score) [12]: -0.678
- glycan array binding signal (z-score) [13]: -0.841
- glycan array binding signal (z-score) [14]: -0.525
